# Reference: the supplement of paper PMC3334620
# The full ranking holds about 33,000 sequences; the median of “E-score (-0.5 to 0.5)” is about -0.036, and the highest 2% start at about 0.37. This is one part of the list.
# Molecular target: T1, Yer064c (UniProt P40041)
# T1 sequence: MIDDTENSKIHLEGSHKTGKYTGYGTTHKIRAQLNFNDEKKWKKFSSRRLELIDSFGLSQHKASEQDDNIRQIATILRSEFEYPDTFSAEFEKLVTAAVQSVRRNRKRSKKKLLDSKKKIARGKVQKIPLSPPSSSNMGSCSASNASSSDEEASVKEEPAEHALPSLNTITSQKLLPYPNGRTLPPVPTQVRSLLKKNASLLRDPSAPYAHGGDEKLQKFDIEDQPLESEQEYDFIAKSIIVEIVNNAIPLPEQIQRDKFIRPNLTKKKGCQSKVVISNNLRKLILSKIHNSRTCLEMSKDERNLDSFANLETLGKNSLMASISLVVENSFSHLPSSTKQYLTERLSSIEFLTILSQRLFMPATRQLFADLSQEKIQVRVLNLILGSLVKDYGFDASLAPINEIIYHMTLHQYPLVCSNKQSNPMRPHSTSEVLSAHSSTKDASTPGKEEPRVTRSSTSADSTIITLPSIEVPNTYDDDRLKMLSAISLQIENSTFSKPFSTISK
# Test: PBM E-score (8-mer binding enrichment) (E-score (-0.5 to 0.5)); higher = stronger / more preferred TF binding; most listed sequences are background and not binding sites
# Conditions: protein concentration: 200 nM; construct: GST-full length
# Procedure, shortened: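 Detection of bound protein used fluorescent anti-GST, with scans normalised by masliner. The proteins were GST-tagged yeast transcription factors applied at about 100-200 nM to universal all-10-mer Agilent arrays made double-stranded by primer extension. Each ungapped eight-base word, pooled with its reverse complement, was scored with an E-score from the Universal PBM Analysis Suite.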
row,Sequence,PBM E-score
1,AACCACCA,0.0562
2,AACGCTTC,-0.185
3,CTAAAGAA,-0.0272
4,ACCGCGGG,0.0814
5,AGCCGCAT,-0.135
6,ATGAAAAG,-0.0509
7,ACATACTA,-0.0662
8,CTCTAGAC,0.101
9,ACTACCGG,-0.013
10,GCAATGGA,0.00609
11,AAACAAGT,0.208
12,CTGGGGCC,-0.291
13,AGCCCCGC,-0.279
14,AAGTGGCA,-0.0485
15,GATGCCCC,-0.286
16,TCGCAACA,0.0311
17,ATTGACCA,-0.0765
18,CTGCCTCA,-0.201
19,GATTAGCA,0.171
20,GTTAAACA,0.189
21,CGCTAATA,-0.0255
22,ACCGTGAT,0.136
23,ACCTGACG,-0.192
24,ACCGGGTG,0.1
25,GCACCCCC,-0.268

row,Sequence,PBM E-score
1,AGCAACCT,-0.232
2,CTGACCAA,0.0591
3,TGGTCACA,0.103
4,GGGGAACC,-0.259
5,AGCAGTAC,0.0125
6,CTCTCGTA,0.0984
7,ACCACGTC,-0.183
8,ATGTTGAG,0.109
9,AACTTTGG,-0.0438
10,ACCACATC,0.0593
11,GCAATTCC,-0.137
12,AACAGGTG,-0.107
13,CCAAATCG,-0.0338
14,CCTCAGAC,0.0131
15,ACAATACC,-0.0454
16,GGGGTACA,-0.0824
17,AAAGATAT,0.0952
18,ACCTAATC,0.26
19,CCAGATTC,-0.245
20,CACGCCCG,-0.108
21,TCGCAGCA,0.166
22,GAATGCCC,-0.228
23,ATGTGGAG,0.0652
24,GAAACATC,-0.048
25,ATTGCGCG,0.0888

row,Sequence,PBM E-score
1,ATCATTTA,0.327
2,GGAAGCAA,-0.241
3,GACACGGC,-0.0491
4,CATAAGGC,-0.0976
5,AATACAGT,0.16
6,ACATACAA,0.0536
7,GACCTGCA,-0.00059
8,AAGTTTAA,-0.0209
9,CGAACGTC,-0.304
10,AAAGGGTT,0.00826
11,CTCACGTA,0.0537
12,CACTCGGG,-0.171
13,CCCCAGCG,-0.186
14,TACCCCAA,-0.0991
15,AAACCCTG,-0.0408
16,AACGAGAC,0.0315
17,CATACAAA,0.0211
18,AGGTGCTG,-0.342
19,AAAATTAG,0.0284
20,CGACAATA,0.0752
21,AGATTGCC,-0.163
22,CATCCGTC,-0.0231
23,GTGATACA,0.158
24,TCGCATAA,0.141
25,ATTAGCCC,-0.0976

row,Sequence,PBM E-score
1,ATGCCTGA,0.13
2,GTCCTTCA,0.0805
3,CTCCCAAG,0.0875
4,ACGACCGG,-0.0792
5,AAACTGAA,0.0322
6,ATTATGTG,0.0418
7,AAGGGTTC,-0.0643
8,ACTTATTG,0.0636
9,ACTTCGCC,0.0193
10,ATGTCGTC,-0.203
11,CCACGATA,-0.12
12,CCTTTACA,-0.019
13,GGGCCTAA,-0.173
14,CGAGTTCA,0.143
15,AAGGATAC,-0.0897
16,ACCTCGTG,-0.157
17,CTCTAATA,0.0638
18,AACAGCCA,0.0641
19,AATGACCT,0.0594
20,ATTGGAAC,0.0813
21,CTCTGTTA,-0.00473
22,CCATGGAA,0.063
23,GTGTGGAA,-0.228
24,AGGTGATG,-0.248
25,GAAAGGAA,-0.0158

row,Sequence,PBM E-score
1,TAGTATCA,0.144
2,CTACATCA,0.0958
3,GCACTGTA,-0.266
4,CTGACCAG,-0.0138
5,AGCGAGAG,0.162
6,ATAGACGG,-0.101
7,AGTAGAGG,-0.282
8,AGTTACGC,-0.173
9,GCCACGAC,0.0674
10,TAACTGTA,0.0241
11,AAAGACAT,-0.156
12,TACAAATA,0.116
13,CGACCATA,-0.0113
14,ATACGTCG,-0.179
15,AGCCCGCT,-0.189
16,AGACTGAG,0.246
17,GGTATTAA,0.119
18,AAAGTTAC,0.0933
19,AGGGGCAT,-0.188
20,CGGACCAC,-0.206
21,CATTTGTA,0.116
22,CGAACTAA,0.0257
23,ACGGACTG,0.113
24,CGCCTGCA,-0.136
25,GGAAATCC,-0.253

row,Sequence,PBM E-score
1,GACGACGA,0.00788
2,AAAAACCA,0.144
3,CATGTGAG,0.16
4,GCGATAAC,-0.135
5,CCGTATGC,-0.167
6,AACCTAAG,-0.141
7,CAGAAGGA,-0.151
8,GCGCGACC,-0.122
9,GTCCATGA,0.174
10,AACAGATG,-0.043
11,CAGTTAAA,0.049
12,AGCCCTCG,-0.0897
13,TTCTTAAA,-0.013
14,AAACAAAA,-0.0535
15,TACCTAGA,0.00516
16,CCCGCAAA,-0.0773
17,AACTAGGG,-0.172
18,ACAAAAAA,0.143
19,CTCGCCTA,-0.0213
20,CACTGTCA,-0.0833
21,CGCGAGAA,-0.0631
22,CAGGAAAA,-0.194
23,AGCCTCAT,-0.0884
24,ATCTCATC,0.0658
25,AAGGACTT,0.0394

row,Sequence,PBM E-score
1,CATGGTTA,0.273
2,AAACTCTC,-0.172
3,CGAACCCA,-0.147
4,AGTGTGAG,0.211
5,CTGTACGA,0.0227
6,CGCCACCG,-0.162
7,CAAATCCA,-0.00143
8,ATTGGCGA,0.0225
9,GTTTAGGA,-0.219
10,AAGGGTCT,-0.276
11,CTTGGATA,0.0191
12,ACCAGTAG,0.0136
13,AATCACCT,0.438
14,AGAGCGGA,-0.0749
15,AGGACGTC,-0.127
16,AGCAGAGC,-0.137
17,AGCATCTC,-0.169
18,CCTCTAAA,-0.0503
19,ACAATGCC,-0.27
20,ATAAAGGG,-0.14
21,GCCTTGCA,-0.187
22,GCACAAAA,0.0474
23,GACTGTAC,0.205
24,CTCGCAAA,0.0465
25,GTCCCTAA,-0.137

row,Sequence,PBM E-score
1,ACCCTCTC,-0.189
2,CACCATCG,-0.191
3,CCGATTCG,0.174
4,ACGGTCAA,0.00367
5,CCTGGGAA,-0.0645
6,ATAACCCG,-0.0584
7,AACGATAA,0.0946
8,CATTACGA,-0.0452
9,CGTCATCC,-0.131
10,AAAGGATC,-0.13
11,CCTGATCA,0.0132
12,CACTCCTA,-0.0701
13,GGGTACTA,0.141
14,AACGTTAG,-0.0386
15,TCCGCACA,-0.0533
16,ATAAAAAA,0.112
17,CGTGGCGA,-0.16
18,CGGTTCAC,-0.0311
19,CTAAATTC,0.101
20,AAGACGTA,0.00511
21,AAGCGGAT,-0.286
22,GACTAAGA,0.444
23,ATGAGGTA,0.0789
24,ATCAGTTA,0.24
25,CTTTTCTA,-0.0532

row,Sequence,PBM E-score
1,ACGATGAT,0.286
2,AGGTGGAT,-0.0934
3,CTTCTAAA,0.00304
4,TAGACTGA,0.122
5,GTTCGGCA,-0.0843
6,CGATCCAG,-0.238
7,ACTCACCA,0.388
8,ACGCTGAG,0.0382
9,AAGACCCC,-0.169
10,AAAATACC,-0.0129
11,TAATGGAA,-0.119
12,CGAATCAC,0.4
13,AAGGAACC,-0.145
14,AAAAGTAT,0.0634
15,ATTTGAGA,0.115
16,GTGTTCTA,-0.0316
17,ACGGCGTA,0.0284
18,AGCAAGCT,-0.166
19,AGAAGTGC,-0.381
